Among all 150,000 compounds or so, about 540 (0.36%) showed an effect of 50% or more. The list shows a part of the results.

This assay relates to Plasmodium falciparum. Nature of the assay: Primary screen in NF54 nanoGlo assay, in single point, at 2uM, 72h; a lower Z score goes with more inhibition. Format: functional, Erythrocyte. Conditions: timepoint 72 hour.
In the case of `CCN1CCN(C(=O)N2CCCC[C@H](c3ccc(F)cc3)C2)C(=O)C1=O`, the “% Inhibition” value is 6% and the Z score is on record as -1.01.
For `CCCCN1CCn2nc(CNC(=O)c3ccc4c(c3)CCCO4)cc2C1` the same measures were -4% and 0.87.
Regarding `CC1CN(CCNCc2cccc(-c3ccccc3)c2)CC(C)O1` (centres undefined), the “% Inhibition” value is recorded as -14% and the Z score was found to be 3.03.
With `CC(C)Nc1nc(N)nc2c1CCN(C(=O)C1(C)CCNCC1)CC2`, the “% Inhibition” value is -4% and the Z score worked out at 0.66.
The corresponding values for `CC(=O)NCc1ccc([C@@H]2CCCN2C(=O)c2cc(F)c(F)c(O)c2F)o1` are 4% and -0.77.
The corresponding values for `Cn1nc(-c2ccco2)cc1NC(=O)N1CCCC2(CCCCC2)C1` are -10% and 1.45.
Turning to `CN(C)c1cc(CNc2nc3cccnc3nc2NCc2ccnc(N(C)C)c2)ccn1`, the “% Inhibition” value is -9% and the Z score is recorded as 1.6.
The corresponding values for `Cn1ncc2c(N)nc(N[C@H]3CCN(c4ccc(F)cc4F)C3)nc21` are 3% and -0.38.
For `CC(C)(NCCCc1ccccc1)C(=O)NC1CCC(O)CC1` (centres undefined) the same measures were 7% and -1.29.
The corresponding values for `c1cnc(N2CCOCC2)c(CNC2CCN(c3ccncc3)CC2)c1` are 9% and -1.69.
Take `O[C@@H](CNc1nc2cc(F)ccc2o1)c1cc(Cl)c2c(c1)OCCO2`: the “% Inhibition” value is listed as -1% and the Z score was 0.11.
The corresponding values for `O=C(c1ccccc1Nc1nc(-c2ccccc2)c2cc(Br)ccc2n1)N1CCOCC1` are -13% and 1.94.
For the compound `CCCC(C)C(=O)NCC(C)(O)COC` (centres undefined), the “% Inhibition” value is -4% and the Z score is on record as 0.82.
Consider `C[C@@H](c1cccc(-c2ccc(Oc3ccc(N)cn3)cc2)c1)N1CCCC1`, for which the “% Inhibition” value is given as -1% and the Z score is on record as 0.24.
With `CN1CCC[C@@]2(CCN(c3nc4ccccc4o3)C2)C1=O`, the “% Inhibition” value was -14% and the Z score is given as 2.8.
In the case of `COc1ccnc(Nc2cc(F)c(N3CCCC3)c(F)c2)n1`, the “% Inhibition” value is recorded as 7% and the Z score is -1.22.
`O=C(NCCN1CCCC[C@@H]1CO)c1cc(-c2ccsc2)[nH]n1`: the “% Inhibition” value is on record as -2% and the Z score is given as 0.29.
The corresponding values for `CC(C)n1ccc(C(=O)N2C[C@@H](C#N)[C@H](c3ccccc3)C2)n1` are -2% and 0.33.
For `CN1CCN(c2cc(CN[C@H]3CCCc4ccc(O)cc43)ccn2)CC1` the same measures were -2% and 0.29.
For `c1cc(CNc2nnc(-c3ccc4c(c3)OCO4)o2)n2ccnc2c1` the same measures were -4% and 0.93.
In the case of `CC1(C)CC(Nc2oc(-c3cccnc3)nc2C#N)CC(C)(C)N1`, the “% Inhibition” value amounted to 0% and the Z score was -0.03.
The corresponding values for `Cc1ccc(C(=O)N2CC3CCCC(C2)N(C)C3=O)cc1OCCCN` (centres undefined) are -12% and 2.11.
For `Nc1nc(NCc2cccc3c2OCCCO3)nc2ccccc12` the same measures were 2% and -0.49.
Turning to `CCCNc1ncc(CN2CCN(c3cc(N)nc(N)n3)CC2)cn1`, the “% Inhibition” value was -8% and the Z score is 1.28.
For `N#Cc1cc(Br)cnc1NCCNC1CCCCCC1` the same measures were -6% and 0.85.
In the case of `Cc1nc(NCC2CCN(CC#N)CC2)c2c(C)csc2n1`, the “% Inhibition” value was -2% and the Z score is 0.3.
The corresponding values for `Cc1nccc(NCC(C)(C)CN(C)C)n1` are 5% and -0.93.
In the case of `O=C(c1cc(C(F)(F)F)[nH]n1)N1CC[C@](CO)(c2ccccc2)C1`, the “% Inhibition” value was determined as 8% and the Z score is recorded as -1.37.
`CN(C)CCN1CCC(NC(=O)N2CCCC[C@@H]2CCn2ccnc2)CC1`: the “% Inhibition” value is reported as -10% and the Z score is 1.64.
The corresponding values for `Cc1nccn1-c1cncc(N(C)Cc2ccccc2O)n1` are -7% and 1.58.
For `Cc1sc2ccccc2c1CN1CCN2C(=O)CN(C)C(=O)[C@@H]2C1` the same measures were -8% and 1.41.
The corresponding values for `CCS(=O)(=O)C1CCN(C(=O)c2cc(O)cc(O)n2)CC1` are -2% and 0.28.
Consider `Cc1ccc(-c2cccc(NC(=O)NCCN3CCC(CO)CC3)c2)cc1`, for which the “% Inhibition” value was 6% and the Z score is -0.87.
The corresponding values for `COc1ccc2oc(C)c(C(=O)[C@H](C#N)c3nc4ccccc4o3)c2c1` are -9% and 1.58.
With `O=S(=O)(Nc1cccc(N2CCC(N3CCN(c4ccccn4)CC3)CC2)c1)c1ccc(F)cc1`, the “% Inhibition” value was found to be 1% and the Z score is -0.23.
For `CCN(Cc1ccc2[nH]ccc2c1)C(=O)c1nn(-c2ccccc2F)cc1O` the same measures were -10% and 1.68.
The corresponding values for `O=C(c1ccnc(-c2ccc(Cl)cc2)n1)N1CCOCC2(CCOCC2)C1` are 0% and 0.01.
For `CO[C@H](c1nc(-c2cnc(C3CCCC3)nc2N)no1)C1CC1`, the “% Inhibition” value is on record as -5% and the Z score was found to be 1.07.
As to `Cc1ncsc1CNc1ccc(C(=O)N2CCOCC2)c(F)c1`, the “% Inhibition” value is recorded as -2% and the Z score turned out to be 0.24.
In the case of `CN1CCN(C2COCC2NC(=O)CC2CCNCC2)CC1` (centres undefined), the “% Inhibition” value is 1% and the Z score is listed as -0.2.
For `COC[C@H](C)C1CCN(S(=O)(=O)C(C)C)CC1` the same measures were 1% and -0.13.
For `Cc1c[nH]c(CN(C)C(=O)[C@H]2CCCN(C3CCN(CCc4ccccc4)CC3)C2)n1` the same measures were 10% and -1.73.

Values taken from ChEMBL document CHEMBL5308541, “MAIP: An Open-Source Tool to Enrich High-Throughput Screening Output and Identify Novel, Druglike Molecules with Antimalarial Activity” (ACS Med Chem Lett, 2023).
